Data taken from PubChem BioAssay AID504333 (National Center for Advancing Translational Sciences (NCATS), 2011).
Screen size: about 360,000 compounds; about 16,000 (4.4%) were called active. The shares of active, inactive and inconclusive entries below differ from those in the screen. Calls come from the whole dose curve; as a rule, active = well fitted inhibition curve with a large enough effect; inconclusive = small, poorly fitted or top-dose-only effect; inactive = no such curve, though single readings can be large or run the other way. Potencies of inconclusive entries are doubtful fits and often do not repeat.

molecular target: Bromodomain adjacent to zinc finger domain protein 2B (Homo sapiens) (UniProt Q9UIF8); assay: qHTS Assay for Inhibitors of BAZ2B; conditions: AlphaScreen BAZ2B-H3K14Ac peptide displacement; activity change, negative = inhibition: at 114 µM (top of the series); note: nearly all actives have a fitted effect of over 60% in size
Chain of UniProt Q9UIF8 (Q9UIF8 whole entry, looked up, the tested form may be a part): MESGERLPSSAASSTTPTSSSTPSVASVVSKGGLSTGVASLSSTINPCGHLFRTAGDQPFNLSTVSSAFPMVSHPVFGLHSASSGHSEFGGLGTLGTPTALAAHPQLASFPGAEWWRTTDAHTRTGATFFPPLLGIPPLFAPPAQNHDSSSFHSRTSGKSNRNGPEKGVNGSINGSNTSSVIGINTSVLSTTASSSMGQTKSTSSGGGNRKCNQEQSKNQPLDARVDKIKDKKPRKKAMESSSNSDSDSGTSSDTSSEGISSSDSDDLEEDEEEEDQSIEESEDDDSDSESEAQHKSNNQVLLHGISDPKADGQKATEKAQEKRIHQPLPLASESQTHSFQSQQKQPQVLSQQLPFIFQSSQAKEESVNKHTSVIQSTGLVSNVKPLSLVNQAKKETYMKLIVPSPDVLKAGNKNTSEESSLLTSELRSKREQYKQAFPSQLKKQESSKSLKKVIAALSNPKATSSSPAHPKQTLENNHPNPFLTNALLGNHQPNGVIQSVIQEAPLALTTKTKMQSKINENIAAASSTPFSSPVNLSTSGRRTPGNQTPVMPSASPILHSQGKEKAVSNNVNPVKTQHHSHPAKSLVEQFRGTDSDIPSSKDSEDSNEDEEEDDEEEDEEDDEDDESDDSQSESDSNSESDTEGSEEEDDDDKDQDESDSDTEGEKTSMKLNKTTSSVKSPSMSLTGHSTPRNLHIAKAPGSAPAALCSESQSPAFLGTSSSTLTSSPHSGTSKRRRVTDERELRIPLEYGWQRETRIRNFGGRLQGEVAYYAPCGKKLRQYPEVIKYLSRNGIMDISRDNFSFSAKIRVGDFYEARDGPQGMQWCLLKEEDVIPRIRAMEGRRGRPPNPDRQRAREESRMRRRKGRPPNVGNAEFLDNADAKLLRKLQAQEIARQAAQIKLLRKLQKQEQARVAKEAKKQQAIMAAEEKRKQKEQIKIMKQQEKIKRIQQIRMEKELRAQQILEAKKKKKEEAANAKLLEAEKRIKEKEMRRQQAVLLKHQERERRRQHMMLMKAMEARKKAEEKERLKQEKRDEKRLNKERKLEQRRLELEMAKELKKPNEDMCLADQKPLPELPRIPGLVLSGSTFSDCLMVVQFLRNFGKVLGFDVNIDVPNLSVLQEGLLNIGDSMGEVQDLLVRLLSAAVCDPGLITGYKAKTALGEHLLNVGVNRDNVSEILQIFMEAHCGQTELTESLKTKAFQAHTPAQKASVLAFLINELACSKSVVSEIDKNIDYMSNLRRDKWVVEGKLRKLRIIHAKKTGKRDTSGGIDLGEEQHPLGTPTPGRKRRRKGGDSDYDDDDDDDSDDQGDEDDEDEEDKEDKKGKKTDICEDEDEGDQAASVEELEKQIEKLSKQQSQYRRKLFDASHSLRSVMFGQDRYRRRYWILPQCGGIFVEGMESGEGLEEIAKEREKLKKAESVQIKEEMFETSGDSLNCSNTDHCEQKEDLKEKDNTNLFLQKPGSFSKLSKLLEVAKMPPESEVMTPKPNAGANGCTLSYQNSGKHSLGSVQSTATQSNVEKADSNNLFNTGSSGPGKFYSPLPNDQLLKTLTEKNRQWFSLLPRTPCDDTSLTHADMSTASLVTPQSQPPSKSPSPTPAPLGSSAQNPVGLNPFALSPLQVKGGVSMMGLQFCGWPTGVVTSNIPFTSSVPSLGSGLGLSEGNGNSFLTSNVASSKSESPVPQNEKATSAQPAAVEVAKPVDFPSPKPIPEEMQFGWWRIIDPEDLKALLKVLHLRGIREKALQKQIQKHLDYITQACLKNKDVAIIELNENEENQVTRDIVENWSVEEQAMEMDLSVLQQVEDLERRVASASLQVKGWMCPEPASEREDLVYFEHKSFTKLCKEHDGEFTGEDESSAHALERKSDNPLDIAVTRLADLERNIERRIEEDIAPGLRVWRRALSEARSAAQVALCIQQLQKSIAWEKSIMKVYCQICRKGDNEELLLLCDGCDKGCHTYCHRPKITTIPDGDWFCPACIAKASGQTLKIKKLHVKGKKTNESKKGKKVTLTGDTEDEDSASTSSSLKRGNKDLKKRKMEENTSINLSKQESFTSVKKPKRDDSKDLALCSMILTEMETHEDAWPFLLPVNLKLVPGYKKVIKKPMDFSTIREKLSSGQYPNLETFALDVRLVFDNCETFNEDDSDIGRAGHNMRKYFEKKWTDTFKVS
Procedure, shortened: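 Multi-concentration screen (max 110 uM) measuring displacement of acetylated histone H3 peptide from BAZ2B by AlphaScreen, using 50 nM protein, 50 nM peptide and 10 ug/mL streptavidin donor plus Ni-chelate acceptor beads.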
% is set by controls: 0 for no effect and ±100 for the full control effect; potency is the fitted concentration of half-maximal effect; tags give direction and shape of the fitted curve.

For `Cc1cccc(NS(=O)(=O)c2ccc(-c3cnc(C4CC4)o3)cc2)c1C`, which Potency is on record?
The Potency was inconclusive: 39.8 µM [inhibitor, partial curve].

With `Cc1cc(C)c2sc(NC(=O)C3CC3)nc2c1` as the compound, how does the “activity change, negative = inhibition” value read?
The value was inactive: -5.09%.

With `COC(=O)C1=C(C)NC(C)=C(C(=O)OC)C1C(=O)OCC(=O)c1ccc(Br)cc1` as the compound, how does the “activity change, negative = inhibition” value read?
Its value is inactive: 6.77%.

`CCOc1ccc(CNC(=O)c2ccc3c(c2)c(C)c(C)n3C)cc1` was tested. Which Potency did it give?
The Potency was active: 39.8 µM.

With `O=C(O)[C@H](Cc1ccccc1)NC(=O)N1CCCCCC1` as the compound, how does the “activity change, negative = inhibition” value read?
The value was inactive: 7.06%.

How did the “activity change, negative = inhibition” value turn out when `CCOC(CNc1ncnc2sc(-c3ccccc3)cc12)OCC` was run?
The value was inactive: 7.97%.

With `COc1ccc(N/C(=C(/C(Cl)=C(Cl)Cl)[N+](=O)[O-])n2nnc3ccccc32)cc1OC` as the compound, how does the Potency read?
The Potency was active: 56.2 µM.

How did the Potency turn out when `O=C(Nc1ncccc1O)c1c(O)c2ccccc2[nH]c1=O` was run?
The Potency was inconclusive: 79.4 µM [inhibitor, partial curve].

With `COc1ccc(-n2c(Cc3cccn3C)nnc2SCC(=O)NCc2ccco2)cc1` as the compound, how does the Potency read?
Its Potency is inconclusive: 50.1 µM [inhibitor, partial curve].

Which Potency does the source give for `COc1ccc(NC(=S)N(CCCN2CCOCC2)Cc2cn(C)c3ccccc23)cc1OC` here?
The Potency was inconclusive: 79.4 µM [inhibitor, single point].

For `COc1ccc(-c2ccc(C3C(C#N)=C(N)Oc4n[nH]c(C)c43)o2)cc1` (centres undefined), which Potency is on record?
The Potency was active: 50.1 µM.

How did the “activity change, negative = inhibition” value turn out when `C[n+]1cnn2c1SCC1(COC1)C2` was run?
Its value is inactive: -1.83%.

How did the Potency turn out when `O=C1CCN=C(Nc2ccc(F)cc2)N1Cc1ccccc1` was run?
The Potency was inconclusive: 31.6 µM [inhibitor, single point].

With `N#CC1=C(N)NC(SCC(=O)c2ccc(Br)cc2)=C(C#N)C12CCCCC2` as the compound, how does the Potency read?
Its Potency is inconclusive: 25.1 µM [inhibitor, full curve].

Which Potency does the source give for `COCCn1nnnc1C(c1ccccn1)N1CCN(c2cc(Cl)ccc2C)CC1` (centres undefined) here?
Its Potency is inconclusive: 89.1 µM [inhibitor, single point].

How did the Potency turn out when `COc1ccc(N2CCN(Cc3cc(OC)c(O)c([N+](=O)[O-])c3)CC2)cc1` was run?
Its Potency is active: 50.1 µM.

How did the Potency turn out when `O=C1C2CCCCC2C(=O)N1c1ccc(NC2CCN(Cc3ccccc3)CC2)c([N+](=O)[O-])c1` (centres undefined) was run?
The Potency was active: 39.8 µM.

For `[O-]/C(=C(\C(=S)Nc1cccc2ccccc12)[n+]1ccccc1)c1ccc2c(c1)OCCO2`, which Potency is on record?
The Potency was active: 56.2 µM.

`Cc1cnc(CN2CCCC(C(=O)c3ccc4c5c(cccc35)CC4)C2)[nH]1` (centres undefined) was tested. Which Potency did it give?
Its Potency is inconclusive: 39.8 µM [inhibitor, partial curve].

`CCOC(=O)c1ccccc1NC(=O)c1cn(CC(C)C)c(=O)c2cc(OC)c(OC)cc12` was tested. Which “activity change, negative = inhibition” value did it give?
The value was inactive: 3.57%.

`COc1ccc(N2CCC(CNS(=O)(=O)c3cccc(C(F)(F)F)c3)C2)cc1` (centres undefined) was tested. Which Potency did it give?
Its Potency is active: 10 µM.

For `O=C(c1ccco1)N1CCN(c2ccc([N+](=O)[O-])cc2Cl)CC1`, which Potency is on record?
Its Potency is inconclusive: 89.1 µM [inhibitor, single point].

`Cc1cccc(OC(C)C(=O)Nc2ccc(N3CCCCC3)cc2)c1` (centres undefined) was tested. Which Potency did it give?
The Potency was inconclusive: 70.8 µM [inhibitor, single point].

For `Cc1ccc(N2C(=O)CS/C2=C(\C(Cl)=C(Cl)Cl)[N+](=O)[O-])cc1`, which Potency is on record?
Its Potency is active: 44.7 µM.

For `CC(NS(=O)(=O)c1ccc(CCC(=O)NCc2cccnc2)cc1)c1ccccc1` (centres undefined), which Potency is on record?
Its Potency is inconclusive: 100 µM [inhibitor, single point].

`COc1ccc(-c2cc(=O)n(CCC#N)[nH]2)cc1` was tested. Which “activity change, negative = inhibition” value did it give?
The value was inactive: -9.51%.

For `O=C(CN1C(=O)c2ccccc2C1=O)Nc1nnc(C2CCCO2)s1` (centres undefined), which “activity change, negative = inhibition” value is on record?
Its value is inactive: -15%.

How did the Potency turn out when `COc1ccc(/C=C/CN2CCC(CO)(Cc3ccccc3Cl)CC2)cc1` was run?
Its Potency is inconclusive: 50.1 µM [inhibitor, partial curve].

Which Potency does the source give for `COc1ccc2c(c1)c(C(O)CN1CCC(Cc3ccccc3)CC1)c(C)n2C` (centres undefined) here?
The Potency was active: 35.5 µM.

With `Cc1ccc(C)n1-c1ccc(N2CCOCC2)cc1` as the compound, how does the Potency read?
Its Potency is inconclusive: 89.1 µM [inhibitor, single point].

With `CCOC(=O)c1sc(NC(=O)C2CC=CCC2C(=O)O)nc1C` (centres undefined) as the compound, how does the Potency read?
Its Potency is inconclusive: 89.1 µM [inhibitor, single point].

For `O=C(NCCCN1CCOCC1)c1ccc2c(c1)N(Cc1c(F)cccc1Cl)C(=O)c1ccccc1S2`, which Potency is on record?
The Potency was inconclusive: 39.8 µM [inhibitor, partial curve].

`Clc1cccc(CN2COc3c(cc(Cl)c4cccnc34)C2)c1` was tested. Which Potency did it give?
Its Potency is active: 28.2 µM.

Which Potency does the source give for `COc1ccc2[nH]cc(CCNC(=O)Cc3ccc(Cl)cc3)c2c1` here?
Its Potency is inconclusive: 79.4 µM [inhibitor, single point].

How did the “activity change, negative = inhibition” value turn out when `COc1ccc(NC(=O)c2c(NCc3ccc(C)o3)sc3c2CCCCC3)c(OC)c1` was run?
Its value is inactive: 17.7%.

How did the Potency turn out when `CCNC(=O)CCCN1C(=O)CCn2nc(-c3cccn3C)cc21` was run?
The Potency was inconclusive: 79.4 µM [inhibitor, single point].

For `CCC(C(=O)O)N1C(=O)/C(=C/c2cccn2C)SC1=S` (centres undefined), which Potency is on record?
Its Potency is inconclusive: 89.1 µM [inhibitor, single point].

Which Potency does the source give for `CC(C(=O)Nc1ccccc1C(F)(F)F)N1CCN(C)CC1` (centres undefined) here?
Its Potency is active: 79.4 µM.

`O=C(NCCc1ccccc1)c1ccc([N+](=O)[O-])cc1` was tested. Which Potency did it give?
Its Potency is inconclusive: 100 µM [inhibitor, single point].

Which Potency does the source give for `CN1CCN(C(=O)c2ccc3c(Cl)c4c(nc3c2)CCCC4)CC1` here?
Its Potency is inconclusive: 89.1 µM [inhibitor, single point].

`Cc1ccc(Cl)cc1N1CCN(CC(O)COCc2ccco2)CC1` (centres undefined) was tested. Which Potency did it give?
Its Potency is active: 50.1 µM.

`Cc1cccc(NC2(C(F)(F)F)N=C3SCCN3C2=O)n1` (centres undefined) was tested. Which Potency did it give?
The Potency was inconclusive: 11.2 µM [inhibitor, full curve].

`O=C(CCl)Nc1cc(-c2ccccc2)nn1-c1ccccc1` was tested. Which “activity change, negative = inhibition” value did it give?
The value was inactive: 7.3%.

For `O=C(COC(=O)Cc1ccc(S(=O)(=O)N2CCOCC2)s1)NCCc1ccccc1`, which Potency is on record?
The Potency was active: 50.1 µM.

For `Cc1ccc(S(=O)(=O)NCCC(=O)Nc2cc(S(=O)(=O)N(C)C)ccc2C)cc1C`, which “activity change, negative = inhibition” value is on record?
The value was inactive: -32.7%.

How did the Potency turn out when `CCOC(=O)N1CCN(C(=O)c2ccc3c(c2)N(C)C(=O)/C(=C\c2ccc(OCC)c(OC)c2)S3)CC1` was run?
Its Potency is inconclusive: 50.1 µM [inhibitor, partial curve].

How did the Potency turn out when `COc1ccc(CCN(C)c2ccc(S(=O)(=O)N3CCCC3)cc2[N+](=O)[O-])cc1OC` was run?
The Potency was inconclusive: 44.7 µM [inhibitor, partial curve].

How did the Potency turn out when `CCc1ccc2oc(-c3cc(N=Cc4cccc(OC)c4O)ccc3O)nc2c1` was run?
The Potency was inconclusive: 44.7 µM [inhibitor, partial curve].

`Cc1ccc(-c2cc(C(=O)NCc3ccco3)c3ccccc3n2)s1` was tested. Which Potency did it give?
The Potency was inconclusive: 50.1 µM [inhibitor, partial curve].

How did the Potency turn out when `Cc1ncc(N=Nc2ccccc2Cl)c(-c2ccccc2)n1` was run?
The Potency was active: 11.2 µM.

With `Cc1[nH]c2ccc(F)cc2c1CCNC(=O)C1CCCCC1C(=O)OCC(F)(F)F` (centres undefined) as the compound, how does the Potency read?
Its Potency is inconclusive: 70.8 µM [inhibitor, single point].

With `CCCNC(=O)c1cc2cc([N+](=O)[O-])ccc2s1` as the compound, how does the Potency read?
Its Potency is inconclusive: 79.4 µM [inhibitor, single point].

For `COc1cccc(CNC(=O)CN2c3cccc4cccc(c34)S2(=O)=O)c1`, which Potency is on record?
The Potency was active: 50.1 µM.

With `Cc1sc2ncnc(NCCN3CCOCC3)c2c1C` as the compound, how does the Potency read?
Its Potency is active: 50.1 µM.

How did the Potency turn out when `O=C(N/N=C/c1ccc(O)c(O)c1)c1ccc(-n2cnnn2)cc1` was run?
Its Potency is active: 50.1 µM.

How did the “activity change, negative = inhibition” value turn out when `O=[N+]([O-])c1cccc(S(=O)(=O)Nc2ccc(-c3ccc(N4CCOCC4)nn3)cc2)c1` was run?
The value was inactive: -5.91%.

With `CCN1CCCC1CNC(=O)c1ccc(Sc2ccccc2Cl)c([N+](=O)[O-])c1` (centres undefined) as the compound, how does the Potency read?
Its Potency is active: 28.2 µM.

With `O=C(O)c1ccc(NC(=S)NC(NC(=O)c2ccco2)C(Cl)(Cl)Cl)cc1` (centres undefined) as the compound, how does the Potency read?
Its Potency is inconclusive: 6.31 µM [inhibitor, single point].

Which Potency does the source give for `CC(C)N(CC#CCC(O)(c1ccccc1)c1ccccc1)CCO` here?
Its Potency is active: 79.4 µM.

`O=C(NC(=O)c1ccc(F)cc1F)Nc1ccc(Cl)cc1` was tested. Which “activity change, negative = inhibition” value did it give?
Its value is inactive: -10.2%.

Which “activity change, negative = inhibition” value does the source give for `COc1ccc(Cn2ccnc2SCC(=O)Nc2ccc3c(c2)OCCO3)cc1` here?
Its value is inactive: -38.9%.

With `O=C(Nc1ccc(C(=O)O)cc1)/C(=C\C=C\c1ccccc1)NC(=O)c1ccc(Br)cc1` as the compound, how does the Potency read?
Its Potency is inconclusive: 79.4 µM [inhibitor, single point].

`Cc1ccc(NC(=O)c2c3c(nc4ccccc24)CCC3)cc1S(=O)(=O)N(C)C` was tested. Which Potency did it give?
Its Potency is inconclusive: 31.6 µM [inhibitor, partial curve].

Which “activity change, negative = inhibition” value does the source give for `Cc1ccc(S(=O)(=O)N2CCCCC2)cc1NC(=O)CNc1ccc(C(F)(F)F)cc1` here?
The value was inactive: 6.65%.

For `Cc1ccc(C(=O)Oc2oc(-c3ccccc3)nc2C=Nc2ccc(N(C)C)cc2)cc1`, which “activity change, negative = inhibition” value is on record?
Its value is inactive: 45.5%.

For `O=C(NCC1CCCO1)c1ccc2c(c1)N(Cc1ccccc1)C(=O)CS2=O` (centres undefined), which “activity change, negative = inhibition” value is on record?
The value was inactive: 3.76%.

`CN=c1scc(-c2ccc(F)cc2)n1/N=C/c1ccc(O)c(O)c1` was tested. Which Potency did it give?
Its Potency is active: 10 µM.

For `O=C(O)CSc1cccc2cccc(C(=O)O)c12`, which Potency is on record?
Its Potency is inconclusive: 89.1 µM [inhibitor, single point].

Which “activity change, negative = inhibition” value does the source give for `Cc1cc2nc(SCC(=O)O)nc(C)c2cc1C` here?
The value was inactive: 7.49%.

With `Cc1ccc(S(=O)(=O)N2CCN(S(=O)(=O)c3ccccc3)C2c2ccc(N(C)C)cc2)cc1` (centres undefined) as the compound, how does the Potency read?
The Potency was inconclusive: 79.4 µM [inhibitor, single point].

For `COc1cccc(/C=C2/Sc3ccc(C(=O)NCCN4CCCCCC4)cc3NC2=O)c1`, which Potency is on record?
The Potency was inconclusive: 25.1 µM [inhibitor, partial curve].

For `CCC(CC)C(=O)Nc1nnc(S(=O)(=O)N(C)c2cc(C)cc(C)c2)s1`, which Potency is on record?
The Potency was inconclusive: 89.1 µM [inhibitor, single point].

`Cc1cc(C(=O)NC2CC(C)(C)Cc3c2cnn3-c2ccccc2C)c(C)o1` (centres undefined) was tested. Which Potency did it give?
Its Potency is inconclusive: 79.4 µM [inhibitor, single point].

Which Potency does the source give for `Cc1cccc(CSCCNC(=O)C2CCN(S(=O)(=O)Cc3ccccc3)CC2)c1` here?
The Potency was inconclusive: 56.2 µM [inhibitor, partial curve].
